B1: chr1:78428520:78428521:-_ENSG00000162613_ENST00000370768|hu_hu|motif|central (ssRNA)
RNA: GGGAGUUCUACAGUCCGACGAUCCCCUAAAGGAUUUACUGGGCCACCAAUCUUUUCUUCUAUGAGUUGCCGAGCAUAGUCGGUCUGUUGUGGAGUGCCACGAAUUGUAAAUAACUUCAUAUUAGGAUCUGCAUUUGGUGGAGGCAACAGAGGAUUGAGCAUCA
B2: 210444459_210489811_375_3pUTR_ENSG00000078018_ENST00000360351|human|control|control (ssRNA)
RNA: GGGAGUUCUACAGUCCGACGAUCUUCUCAAAGGGUUGAUAAUAUUUUCUGGCUUCUUUCUUUUAAUUUUCUGAAUGAGUAGCUCCCAAUCAAUGCUUCCUCGGUUAGAGACAAGCUGAAGAAUCAGCGCAUAUGCAGCAAUACCAACAGAGGAUUGAGCAUCA
B3: chr7:7679991:7679992:-_ENSG00000106399_ENST00000396682|hu_hu|hu_hu_hu_mus_False|58_78 (ssRNA)
RNA: GGGAGUUCUACAGUCCGACGAUCUGGGAUGAAUCUUUUCCAGCUUCCCCACGAAGCAGACAGGCUUGUCGAUAUACUGAGCUAGCAUGCUGGCGUUGACGCGCGCUUUGGGGAGCUGCAUUAUGUCCUCCAUGAUUCUGCCGCCAACAGAGGAUUGAGCAUCA
B4: chr2:48026839:48026840:+_ENSG00000116062_ENST00000540021|hu_hu|hu_hu_hu_mus_False|78_78 (ssRNA)
RNA: GGGAGUUCUACAGUCCGACGAUCAUAGUGAGCCACUAGCGUCCUAAAUCUGGAACAAUGGCGAUCAUCCGAAAACUGGCCGAUGAAAAACUUGCCCAGUGAAGUGUCCACAAAGCAAACACCAUACACACGAGUGUGACCAGACAACAGAGGAUUGAGCAUCA
B5: chr22:32894459:32894460:+_ENSG00000100225_ENST00000397426|hu_hu|FALSE|FALSE (ssRNA)
RNA: GGGAGUUCUACAGUCCGACGAUCACAAAUCAAUCACAUGAAUGACAGCCGGCCAUCAGUUGGCCGACCCCUGCUGGGUCUAAAGGGAAAUCUGUCAUUGGGGCCGCCUCGCCCUGGCAAGAUGGGGUUAGGUCCUGGAAGUGGCAACAGAGGAUUGAGCAUCA
B6: chr11:118025658:118025659:-_ENSMUSG00000017132_ENSMUST00000017276|mus_mus|motif|central (ssRNA)
RNA: GGGAGUUCUACAGUCCGACGAUCUUUGUAUUUUGACAAAUAUUUUUUAAACAAAUACAAAAUAAUCUAAAAGGAGAAAAACGGUGUGUGGAUUAUUUACACCUCUGAUAAAUAGACUGACACUGAGCCAGGUGCUGGCCUGCCCAACAGAGGAUUGAGCAUCA
B7: chr1:168330043:168330044:-_ENSMUSG00000040596_ENSMUST00000169324|mus_hu|FALSE|FALSE (ssRNA)
RNA: GGGAGUUCUACAGUCCGACGAUCCUUGGCAGCCUGGCAGUUGUUGGUACUCUCAGCAUAUUCCACUACCAUCAGCUUGAACCCUGCGUCGUAACUGCGGCGCAUGCCCCGGCUGAACUGAAACUUCCCAGCUAUGUCAUCAGCCAACAGAGGAUUGAGCAUCA
B8: chr11:29608612:29608613:+_ENSMUSG00000020458_ENSMUST00000102843|mus_mus|FALSE|FALSE (ssRNA)
RNA: GGGAGUUCUACAGUCCGACGAUCUUGAGAUUCCAAAGCAGAAACAUUUGGAAGCAAUAAGGGCACCUUAGAUACACUGGACCUACUUUUGGAGAAUUCAUCUGAGACAUGUGCUUCAUCUUUAGGAUAUGUAUUCUUGAAAGACAACAGAGGAUUGAGCAUCA
B9: chr2:120842415:120842416:+_ENSMUSG00000023572_ENSMUST00000060455|mus_mus|FALSE|FALSE (ssRNA)
RNA: GGGAGUUCUACAGUCCGACGAUCCUCUCCUAGCCUGGAGUCUUGGUAACAAUCUCUUCUUAAGGACAGAGGCUGCCUUUCUAUCGAGCAAACACCCUGUCAAAGCUCCACUUCUAAAAGCAGACGUUAAAAAAACUUAAAAAACAACAGAGGAUUGAGCAUCA
B10: chr1:171751117:171751118:+_ENSG00000010165_ENST00000361735|hu_hu|FALSE|FALSE (ssRNA)
RNA: GGGAGUUCUACAGUCCGACGAUCCUUUUAGGUAAGAGGUUCAUGUUCCUACUGCCGAAGCUGCGUUUUCAAGACUCCCCUAUUCCCUGUGAGAUACCAUUUGAGGAGCUUGCCCACCACACGCAGGCUCCGGGACACUGCAGUCAACAGAGGAUUGAGCAUCA
B11: chrX:71549400:71549401:+_ENSMUSG00000019087_ENSMUST00000019231|mus_hu|mus_mus_mus_hu_False|48_98 (ssRNA)
RNA: GGGAGUUCUACAGUCCGACGAUCGCAGUAGGAAGAGCAAACCUUUCCAGUCCAGUGCGCUGCAGGGUGGGAAAGCAACAACACGGAACCAAUACUCCCCUCAACCCCCCCACUGGCACAGGGUCACACAAUCUGGGUCAAAGACAACAGAGGAUUGAGCAUCA
B12: 27457493_27458172_3948_CDS_ENSG00000084774_ENST00000264705|human|control|control (ssRNA)
RNA: GGGAGUUCUACAGUCCGACGAUCCAUUUCCACACCCAACACCACGUCAGCACCCGCCAAGCGGGAGAAGGAGAACUGAGGCACCUUUACUCCCACGACUCCAGAACCAGUCAUUAGCCCCACAGGUUCCACUUCUUCCCCCAUCAACAGAGGAUUGAGCAUCA
B13: chr7:56126341:56126342:+_ENSG00000146731_ENST00000540286|hu_mus|hu_hu_hu_mus_True|68_88 (ssRNA)
RNA: GGGAGUUCUACAGUCCGACGAUCCAUGUUUCUCCUCUUGGCUCUGCGCAGAGCAACGAUCCCUUCUUUUGAAAGAGCAUCUAAGGAAAAGGGGUCAAUCCCCUUUUGAUUAAUAACGACAAAUCCUUUAUCUGAGUCACCACACAACAGAGGAUUGAGCAUCA
B14: chrX:17825403:17825404:+_ENSMUSG00000037369_ENSMUST00000044484|mus_hu|FALSE|FALSE (ssRNA)
RNA: GGGAGUUCUACAGUCCGACGAUCAUGAGCUUGUUGCUGUACUGGAGGAUGUGACACAGCAUGUCCACCACUCCAAUUGUCAGAAGUAUUCUGCUGUGCUGUGUUCAUGGCACCCUGCCUGGAGGUAAGCUCUGCGGGAAUUGGCAACAGAGGAUUGAGCAUCA

Experimental findings from PMC12136788 are described below.

This is one part of the list.

The target in this experiment is T1, UNK ZnF1-3 (human, UniProt Q9C0B0 31-174).
T1 sequence: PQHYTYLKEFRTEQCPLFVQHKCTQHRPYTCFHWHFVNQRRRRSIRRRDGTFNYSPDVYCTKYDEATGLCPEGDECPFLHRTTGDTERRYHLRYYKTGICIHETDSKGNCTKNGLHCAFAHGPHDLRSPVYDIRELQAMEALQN
The experiment is described as follows: nsRBNS (natural sequence RNA bind-n-seq); RBNS binding buffer (assumed for nsRBNS): 25 mM Tris pH 7.5, 150 mM KCl, 3 mM MgCl2, 0.01% Triton X-100, 500 ug/ml BSA, 20 U/ml SUPERase-In, 4 C; UNK is unkempt and MSI1 is Musashi-1; names of the RNAs are library labels; protein concentration not given here; high values mean tight binding.
Regarding B1, the binding signal worked out at 1.36 enrichment R.

As for B2, the binding signal amounted to 1.27 enrichment R.

For the molecule B3, the binding signal was 0.661 enrichment R.

Consider B4, for which the binding signal came out at 1.25 enrichment R.

The molecule B5 yielded a binding signal of 1.16 enrichment R.

In turn, B6 had a binding signal of 1.18 enrichment R.

In turn, B7 returned a binding signal of 0.707 enrichment R.

The molecule B8 registered a binding signal of 0.984 enrichment R.

For B9, the binding signal was determined as 0.956 enrichment R.

In turn, B10 came in with a binding signal of 0.745 enrichment R.

For B11, the binding signal came out at 1.77 enrichment R.

Turning to B12, the binding signal came to 1.31 enrichment R.

For the molecule B13, the binding signal came to 2.07 enrichment R.

With B14, the binding signal worked out at 0.601 enrichment R.
